Results published in the supplement of paper PMC8728848.
Some of the results follow.

Columns and labels:
Experiment in all cases: glycan array binding signal (z-score within array); higher = stronger binding
Conditions in all cases: glycan notation: IUPAC condensed, linker removed
[1] = biological target: Fuc(a1-2)[Gal(a1-3)]Gal(b1-3)GlcNAc(b1-6)GalNAc
Summary of the method: (§1)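 The Consortium for Functional Glycomics database supplied 3228 glycan arrays, of which those lacking an available protein sequence were dropped. The binding signal, a within-array Z-score, was averaged across arrays of the same protein sequence and across linkers. Negative scores can be read as non-binding.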

[2] = biological target: Fuc(a1-2)[Gal(a1-3)]Gal(b1-4)Glc
Summary of the method: as §1

[3] = biological target: Fuc(a1-2)[Gal(a1-3)]Gal(b1-4)GlcNAc
Summary of the method: as §1

[4] = biological target: Fuc(a1-2)[Gal(a1-3)]Gal(b1-4)GlcNAc(b1-2)Man
Summary of the method: as §1

[5] = biological target: Fuc(a1-2)[Gal(a1-3)]Gal(b1-4)GlcNAc(b1-2)Man(a1-3)[Fuc(a1-2)[Gal(a1-3)]Gal(b1-4)GlcNAc(b1-2)Man(a1-6)]Man(b1-4)GlcNAc(b1-4)GlcNAc
Summary of the method: as §1

[6] = biological target: Fuc(a1-2)[Gal(a1-3)]Gal(b1-4)GlcNAc(b1-2)Man(a1-3)[Fuc(a1-2)[Gal(a1-3)]Gal(b1-4)GlcNAc(b1-2)Man(a1-6)]Man(b1-4)GlcNAc(b1-4)[Fuc(a1-6)]GlcNAc
Summary of the method: as §1

[7] = biological target: Fuc(a1-2)[Gal(a1-3)]Gal(b1-4)GlcNAc(b1-3)GalNAc
Summary of the method: as §1

[8] = biological target: Fuc(a1-2)[Gal(a1-3)]Gal(b1-4)GlcNAc(b1-3)[Fuc(a1-2)[Gal(a1-3)]Gal(b1-4)GlcNAc(b1-6)]GalNAc
Summary of the method: as §1

[9] = biological target: Fuc(a1-2)[Gal(a1-3)]Gal(b1-4)GlcNAc(b1-6)GalNAc
Summary of the method: as §1

[10] = biological target: Fuc(a1-2)[Gal(a1-3)]Gal(b1-4)[Fuc(a1-3)]Glc
Summary of the method: as §1

[11] = biological target: Fuc(a1-2)[Gal(a1-3)]Gal(b1-4)[Fuc(a1-3)]GlcNAc
Summary of the method: as §1

[12] = biological target: Fuc(a1-2)[Gal(a1-3)]Gal(b1-4)[Fuc(a1-3)]GlcNAc(b1-3)GalNAc
Summary of the method: as §1

[13] = biological target: Fuc(a1-2)[Gal(a1-4)]Gal(b1-4)GlcNAc
Summary of the method: as §1

[14] = biological target: Fuc(a1-2)[GalNAc(a1-3)]Gal
Summary of the method: as §1

[15] = biological target: Fuc(a1-2)[GalNAc(a1-3)]Gal(b1-3)GalNAc(a1-3)[Fuc(a1-2)]Gal(b1-4)GlcNAc
Summary of the method: as §1

[16] = biological target: Fuc(a1-2)[GalNAc(a1-3)]Gal(b1-3)GalNAc(b1-3)Gal(a1-4)Gal(b1-4)Glc
Summary of the method: as §1

[17] = biological target: Fuc(a1-2)[GalNAc(a1-3)]Gal(b1-3)GlcNAc
Summary of the method: as §1

[18] = biological target: Fuc(a1-2)[GalNAc(a1-3)]Gal(b1-3)GlcNAc(b1-2)Man(a1-3)[Fuc(a1-2)[GalNAc(a1-3)]Gal(b1-3)GlcNAc(b1-2)Man(a1-6)]Man(b1-4)GlcNAc(b1-4)GlcNAc
Summary of the method: as §1

[19] = biological target: Fuc(a1-2)[GalNAc(a1-3)]Gal(b1-3)GlcNAc(b1-2)Man(a1-3)[Fuc(a1-2)[GalNAc(a1-3)]Gal(b1-3)GlcNAc(b1-2)Man(a1-6)]Man(b1-4)GlcNAc(b1-4)[Fuc(a1-6)]GlcNAc
Summary of the method: as §1

[20] = biological target: Fuc(a1-2)[GalNAc(a1-3)]Gal(b1-3)GlcNAc(b1-3)GalNAc
Summary of the method: as §1

[21] = biological target: Fuc(a1-2)[GalNAc(a1-3)]Gal(b1-3)GlcNAc(b1-6)GalNAc
Summary of the method: as §1

[22] = biological target: Fuc(a1-2)[GalNAc(a1-3)]Gal(b1-4)Glc
Summary of the method: as §1

[23] = biological target: Fuc(a1-2)[GalNAc(a1-3)]Gal(b1-4)GlcNAc
Summary of the method: as §1

[24] = biological target: Fuc(a1-2)[GalNAc(a1-3)]Gal(b1-4)GlcNAc(b1-2)Man
Summary of the method: as §1

[25] = biological target: Fuc(a1-2)[GalNAc(a1-3)]Gal(b1-4)GlcNAc(b1-2)Man(a1-3)[Fuc(a1-2)[GalNAc(a1-3)]Gal(b1-4)GlcNAc(b1-2)Man(a1-6)]Man(b1-4)GlcNAc(b1-4)GlcNAc
Summary of the method: as §1

[26] = biological target: Fuc(a1-2)[GalNAc(a1-3)]Gal(b1-4)GlcNAc(b1-2)Man(a1-3)[Fuc(a1-2)[GalNAc(a1-3)]Gal(b1-4)GlcNAc(b1-2)Man(a1-6)]Man(b1-4)GlcNAc(b1-4)[Fuc(a1-6)]GlcNAc
Summary of the method: as §1

[27] = biological target: Fuc(a1-2)[GalNAc(a1-3)]Gal(b1-4)GlcNAc(b1-3)Gal(b1-4)GlcNAc
Summary of the method: as §1

[28] = biological target: Fuc(a1-2)[GalNAc(a1-3)]Gal(b1-4)GlcNAc(b1-3)Gal(b1-4)GlcNAc(b1-3)Gal(b1-4)GlcNAc
Summary of the method: as §1

[29] = biological target: Fuc(a1-2)[GalNAc(a1-3)]Gal(b1-4)GlcNAc(b1-3)GalNAc
Summary of the method: as §1

[30] = biological target: Fuc(a1-2)[GalNAc(a1-3)]Gal(b1-4)GlcNAc(b1-3)[Fuc(a1-2)[GalNAc(a1-3)]Gal(b1-4)GlcNAc(b1-6)]GalNAc
Summary of the method: as §1

[31] = biological target: Fuc(a1-2)[GalNAc(a1-3)]Gal(b1-4)GlcNAc(b1-6)GalNAc
Summary of the method: as §1

[32] = biological target: Fuc(a1-2)[GalNAc(a1-3)]Gal(b1-4)[Fuc(a1-3)]GlcNAc
Summary of the method: as §1

[33] = biological target: Fuc(a1-2)[GalNAc(a1-3)]Gal(b1-4)[Fuc(a1-3)]GlcNAc(b1-3)GalNAc
Summary of the method: as §1

[34] = biological target: Fuc(a1-2)[GalNAc(a1-4)]Gal(b1-4)GlcNAc
Summary of the method: as §1

[35] = biological target: Fuc(a1-2)[GalNAc(b1-3)]Gal
Summary of the method: as §1

Fuc(a1-3)GlcNAc = biological target: Fuc(a1-3)GlcNAc
Summary of the method: as §1

[36] = biological target: Fuc(a1-3)[Gal(b1-4)]Glc6S
Summary of the method: as §1

[37] = biological target: Fuc(a1-3)[Gal(b1-4)]GlcNAc
Summary of the method: as §1

[38] = biological target: Fuc(a1-3)[Gal(b1-4)]GlcNAc(b1-2)Man
Summary of the method: as §1

[39] = biological target: Fuc(a1-3)[Gal(b1-4)]GlcNAc(b1-2)Man(a1-3)[Fuc(a1-3)[Gal(b1-4)]GlcNAc(b1-2)Man(a1-6)]Man(b1-4)GlcNAc(b1-4)GlcNAc
Summary of the method: as §1

[40] = biological target: Fuc(a1-3)[Gal(b1-4)]GlcNAc(b1-2)Man(a1-3)[Fuc(a1-3)[Gal(b1-4)]GlcNAc(b1-2)Man(a1-6)]Man(b1-4)GlcNAc(b1-4)[Fuc(a1-6)]GlcNAc
Summary of the method: as §1

[41] = biological target: Fuc(a1-3)[Gal(b1-4)]GlcNAc(b1-3)Gal(b1-3)[Fuc(a1-4)]GlcNAc
Summary of the method: as §1

[42] = biological target: Fuc(a1-3)[Gal(b1-4)]GlcNAc(b1-3)Gal(b1-4)[Fuc(a1-3)]GlcNAc
Summary of the method: as §1

[43] = biological target: Fuc(a1-3)[Gal(b1-4)]GlcNAc(b1-3)Gal(b1-4)[Fuc(a1-3)]GlcNAc(b1-3)Gal(b1-4)[Fuc(a1-3)]GlcNAc
Summary of the method: as §1

[44] = biological target: Fuc(a1-3)[Gal(b1-4)]GlcNAc(b1-3)GalNAc
Summary of the method: as §1

[45] = biological target: Fuc(a1-3)[Gal(b1-4)]GlcNAc(b1-4)Gal(b1-4)[Fuc(a1-3)]GlcNAc
Summary of the method: as §1

[46] = biological target: Fuc(a1-3)[Gal(b1-4)]GlcNAc(b1-4)Gal(b1-4)[Fuc(a1-3)]GlcNAc(b1-4)Gal(b1-4)[Fuc(a1-3)]GlcNAc
Summary of the method: as §1

[47] = biological target: Fuc(a1-3)[Gal(b1-4)]GlcNAc(b1-6)GalNAc
Summary of the method: as §1

[48] = biological target: Fuc(a1-3)[Gal(b1-4)]GlcNAc(b1-6)[Gal(b1-3)GlcNAc(b1-3)]Gal(b1-4)Glc
Summary of the method: as §1

[49] = biological target: Fuc(a1-3)[Gal(b1-4)]GlcNAc6S
Summary of the method: as §1

[50] = biological target: Fuc(a1-3)[Gal3S(b1-4)]Glc
Summary of the method: as §1

[51] = biological target: Fuc(a1-3)[Gal3S(b1-4)]GlcNAc
Summary of the method: as §1

[52] = biological target: Fuc(a1-3)[Gal3S(b1-4)]GlcNAc6S
Summary of the method: as §1

[53] = biological target: Fuc(a1-3)[GalNAc(b1-4)]GlcNAc
Summary of the method: as §1

[54] = biological target: Fuc(a1-3)[GalNAc(b1-4)]GlcNAc6S
Summary of the method: as §1

Fuc(a1-4)GlcNAc = biological target: Fuc(a1-4)GlcNAc
Summary of the method: as §1

Fuc(b1-3)GlcNAc = biological target: Fuc(b1-3)GlcNAc
Summary of the method: as §1

Gal(a1-2)Gal = biological target: Gal(a1-2)Gal
Summary of the method: as §1

Gal(a1-3)Gal = biological target: Gal(a1-3)Gal
Summary of the method: as §1

Gal(a1-3)Gal(b1-3)GlcNAc = biological target: Gal(a1-3)Gal(b1-3)GlcNAc
Summary of the method: as §1

B1: rCNL (Clitocybe nebularis), B2ZRS9 (protein)
chain: SITPGTYNITNVAYTNRLIDLTGSNPAENTLIIGHHLNKTPSGYGNQQWTLVQLPHTTIYTMQAVNPQSYVRVRDDNLVDGAALVGSQQPTPVSIESAGNSGQFRIKIPNLGLALTLPSDANSTPIVLGEVDETSTNQLWAFESVSAV
[1]
  glycan array binding signal (z-score): -0.193
[2]
  glycan array binding signal (z-score): -0.182
[3]
  glycan array binding signal (z-score): 0.043
[4]
  glycan array binding signal (z-score): -0.215
[5]
  glycan array binding signal (z-score): 0.138
[6]
  glycan array binding signal (z-score): -0.17
[7]
  glycan array binding signal (z-score): -0.209
[8]
  glycan array binding signal (z-score): -0.218
[9]
  glycan array binding signal (z-score): -0.218
[10]
  glycan array binding signal (z-score): -0.224
[11]
  glycan array binding signal (z-score): -0.235
[12]
  glycan array binding signal (z-score): -0.214
[13]
  glycan array binding signal (z-score): -0.294
[14]
  glycan array binding signal (z-score): 2.83
[15]
  glycan array binding signal (z-score): 2.47
[16]
  glycan array binding signal (z-score): 3.06
[17]
  glycan array binding signal (z-score): 2.3
[18]
  glycan array binding signal (z-score): 2.65
[19]
  glycan array binding signal (z-score): -0.151
[20]
  glycan array binding signal (z-score): 1.16
[21]
  glycan array binding signal (z-score): 1.69
[22]
  glycan array binding signal (z-score): 2.49
[23]
  glycan array binding signal (z-score): 3.08
[24]
  glycan array binding signal (z-score): 3.12
[25]
  glycan array binding signal (z-score): 4
[26]
  glycan array binding signal (z-score): 1.23
[27]
  glycan array binding signal (z-score): 3.46
[28]
  glycan array binding signal (z-score): 3.25
[29]
  glycan array binding signal (z-score): 0.992
[30]
  glycan array binding signal (z-score): 2.18
[31]
  glycan array binding signal (z-score): 2.35
[32]
  glycan array binding signal (z-score): 1.32
[33]
  glycan array binding signal (z-score): -0.214
[34]
  glycan array binding signal (z-score): 1.89
[35]
  glycan array binding signal (z-score): -0.196
Fuc(a1-3)GlcNAc
  glycan array binding signal (z-score): -0.311
[36]
  glycan array binding signal (z-score): -0.295
[37]
  glycan array binding signal (z-score): -0.299
[38]
  glycan array binding signal (z-score): -0.224
[39]
  glycan array binding signal (z-score): -0.211
[40]
  glycan array binding signal (z-score): -0.218
[41]
  glycan array binding signal (z-score): -0.288
[42]
  glycan array binding signal (z-score): -0.216
[43]
  glycan array binding signal (z-score): -0.222
[44]
  glycan array binding signal (z-score): -0.278
[45]
  glycan array binding signal (z-score): -0.336
[46]
  glycan array binding signal (z-score): -0.359
[47]
  glycan array binding signal (z-score): -0.213
[48]
  glycan array binding signal (z-score): -0.294
[49]
  glycan array binding signal (z-score): -0.178
[50]
  glycan array binding signal (z-score): -0.218
[51]
  glycan array binding signal (z-score): -0.268
[52]
  glycan array binding signal (z-score): -0.288
[53]
  glycan array binding signal (z-score): -0.279
[54]
  glycan array binding signal (z-score): -0.207
Fuc(a1-4)GlcNAc
  glycan array binding signal (z-score): -0.301
Fuc(b1-3)GlcNAc
  glycan array binding signal (z-score): -0.297
Gal(a1-2)Gal
  glycan array binding signal (z-score): -0.303
Gal(a1-3)Gal
  glycan array binding signal (z-score): -0.297
Gal(a1-3)Gal(b1-3)GlcNAc
  glycan array binding signal (z-score): -0.184
